Structures are written as SMILES. Over roughly 110,000 compounds, “z-score” has its median near -0.1; the highest 2% begin near 2. This is one part of the list.

For this assay, the target named is Metabotropic glutamate receptor 8 (Rattus norvegicus) (UniProt P70579). Briefly: mGluR8 Gi/Go-coupled signaling modulation – cell-based, rat, thallium flux, HTS, primary screen (AID 488969). Particulars: HEK293 rat mGluR8, GIRK (G protein-gated inwardly rectifying potassium channel) thallium flux, FluoZin2; at 10 µM; stronger effect = higher value; submaximal glutamate (EC20) added with thallium.
UniProt P70579, sequence (P70579 whole entry, looked up): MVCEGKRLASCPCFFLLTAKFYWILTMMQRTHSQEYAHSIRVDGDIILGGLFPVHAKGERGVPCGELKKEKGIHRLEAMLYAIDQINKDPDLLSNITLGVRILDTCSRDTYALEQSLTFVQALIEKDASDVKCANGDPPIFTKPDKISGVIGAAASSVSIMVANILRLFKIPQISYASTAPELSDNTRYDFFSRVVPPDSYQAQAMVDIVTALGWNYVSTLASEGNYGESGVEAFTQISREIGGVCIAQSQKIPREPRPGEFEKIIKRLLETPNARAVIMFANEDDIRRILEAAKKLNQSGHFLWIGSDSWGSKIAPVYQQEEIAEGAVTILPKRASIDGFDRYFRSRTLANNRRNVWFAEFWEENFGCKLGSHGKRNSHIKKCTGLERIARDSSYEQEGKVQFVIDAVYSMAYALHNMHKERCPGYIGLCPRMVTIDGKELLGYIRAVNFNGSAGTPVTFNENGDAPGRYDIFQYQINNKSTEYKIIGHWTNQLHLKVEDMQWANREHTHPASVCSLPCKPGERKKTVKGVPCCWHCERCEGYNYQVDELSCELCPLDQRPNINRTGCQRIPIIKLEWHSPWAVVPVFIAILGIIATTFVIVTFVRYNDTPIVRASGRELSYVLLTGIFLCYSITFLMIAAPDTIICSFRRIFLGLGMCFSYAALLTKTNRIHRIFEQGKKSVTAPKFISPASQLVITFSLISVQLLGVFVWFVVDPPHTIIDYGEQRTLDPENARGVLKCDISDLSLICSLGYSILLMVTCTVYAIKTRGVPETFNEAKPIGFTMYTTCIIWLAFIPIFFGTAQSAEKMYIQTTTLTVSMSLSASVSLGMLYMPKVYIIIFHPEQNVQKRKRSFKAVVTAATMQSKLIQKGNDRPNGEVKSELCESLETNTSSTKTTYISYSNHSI
Take `C/C(=C\c1ccccc1)CN1CCN(c2ccccc2F)CC1`: the z-score is 0.326.

For `COc1cc(Cn2c(-c3nonc3N)nc3ccccc32)ccc1C`, the z-score is -0.0177.

Regarding `COc1ccc(C(=O)NC(=S)Nc2ccccc2N2CCCCC2)cc1[N+](=O)[O-]`, the z-score stood at 0.366.

On to `COC(=O)C1CCN(C(=O)CSc2nnc(-c3ccncc3)o2)CC1`, for which the z-score is -0.184.

`O=C(NCCCCCCNC(=O)NCc1ccco1)NCc1ccco1` had a z-score of 0.295.

In turn, `CC(Oc1ccc(Cl)cc1Cl)C(=O)Nn1cnnc1` (configuration not stated) returned a z-score of 1.17.

In the case of `O=C(CNc1ccccc1)N/N=C/c1ccc([N+](=O)[O-])cc1`, the z-score was -0.176.

Compound `c1ccc2c(c1)[nH]c1c(N3CCN(C4CCCCC4)CC3)ncnc12` had a z-score of -0.385.

For the compound `Cc1ccc(NC(=O)C2CCCO2)cc1[N+](=O)[O-]` (configuration not stated), the z-score is -0.12.

`COc1ccc(OC)c(S(=O)(=O)N2CCC(C(=O)N3CCc4ccccc4C3)CC2)c1` gave a z-score of 0.145.

Regarding `O=C(COC(=O)c1c(Cl)cccc1Cl)Nc1ccccc1Br`, the z-score was -1.12.

For `Cc1nc(NC(C)c2ccccc2)c2oc3ccccc3c2n1` (configuration not stated), the z-score is -0.398.

For the compound `CC(C(=O)NCc1ccccn1)N1C(=O)c2ccccc2C1=O` (configuration not stated), the z-score amounted to 0.197.

Turning to `Cc1ccccc1C(=O)NC(=S)NCC(=O)c1ccccc1`, the z-score is -0.0957.

On to `O=C(NC1CCCC1)c1c[nH]c2ccc(F)cc2c1=O`, for which the z-score was determined as 0.0974.

In turn, `O=S(=O)(NCC1CCCO1)c1ccc(S(=O)(=O)N(Cc2ccccc2F)C2CCCCC2)cc1` (configuration not stated) gave a z-score of -0.337.

`CC(C)OC(=O)CSc1nc(-c2ccc(F)cc2)nc2ccc(F)cc12`: the z-score was -0.284.

In the case of `CCOC(=O)c1c(C)n(C)c2ccc(OC(=O)c3ccco3)cc12`, the z-score is -0.000103.

Regarding `Cc1cccnc1NC(=O)C1c2ccccc2Oc2ccccc21`, the z-score is -0.223.

Compound `CCC(C(=O)NC1CCCC1)N(C(=O)Cn1nnc(-c2cccs2)n1)c1cnc2ccccc2c1` (configuration not stated) showed a z-score of -0.032.

As for `COc1ccccc1N(CC(=O)NC(C)(C)C)C(=O)Cn1nnc(-c2ccc(C)o2)n1`, the z-score is -0.399.

As to `O=C1OCc2ccc(NC(=O)C3CCCCC3)cc21`, the z-score is -0.143.

As to `N#CCCn1cc(/C=N/NC(=O)c2ccncc2)c(-c2ccccc2)n1`, the z-score was -0.132.

`CCOC(=O)CN(c1ccccn1)S(=O)(=O)c1ccccc1` came in with a z-score of -0.0819.

In turn, `Nc1cc(=O)[nH]c(SCc2nnc(-c3ccccc3)o2)n1` showed a z-score of -0.00413.

With `CCC(=O)n1nc(-c2ccccc2)nc1NCc1ccccc1`, the z-score was -0.0763.

In the case of `CC(OC(=O)CNC(=O)C12CC3CC(CC(C3)C1)C2)C(=O)Nc1ncc(Cl)cc1Cl` (configuration not stated), the z-score is -0.644.

Consider `COCC(=O)Nc1ccc(OCc2ccccc2)cc1`, for which the z-score was -0.276.

The compound `COC(=O)c1ccc(Cn2nc(C(F)(F)F)cc2C)cc1` returned a z-score of -0.0701.

`CCOc1ccccc1C1CC(c2ccc(Br)cc2)Nc2nc(N)nn21` (configuration not stated) came in with a z-score of 0.096.

Compound `CCC1CCC2(CC1)NNC(=S)NN2` returned a z-score of -0.17.

In turn, `O=C1CC(=O)N(c2ccccc2)N1c1ccccc1` came in with a z-score of -0.107.

`CC(C)CN(C(=O)c1cc2ccccc2o1)c1c(N)n(CC(C)C)c(=O)[nH]c1=O`: the z-score is -0.409.

`COC(=O)c1c(NC(=O)CN2CCN(S(=O)(=O)c3ccccc3[N+](=O)[O-])CC2)sc2c1CCC(C)C2` (configuration not stated) gave a z-score of -0.183.

For the compound `Cc1cccc(C2NC(=O)c3c(sc(C)c3C)N2)c1O` (configuration not stated), the z-score was found to be 0.00148.

In turn, `Cc1ccc(NC(=O)C(C)N2C(=O)C3CC=C(Cl)CC3C2=O)cc1` (configuration not stated) showed a z-score of -0.206.

In turn, `COc1ccc2nc(SCC(=O)Nc3ccc(S(=O)(=O)N4CCCC4)cc3)c(C#N)cc2c1` gave a z-score of 0.0728.

For `CC1CC(C)CN(C(=O)c2ccc(N3CC4CC(C3)c3cccc(=O)n3C4)c([N+](=O)[O-])c2)C1` (configuration not stated), the z-score is -1.22.

Compound `Cc1ccnc2nc(C(=O)NCc3cccs3)nn12` yielded a z-score of 0.416.

Turning to `Cc1cccc(CN2CCN(CC(=O)O)C2=O)c1`, the z-score worked out at 1.19.

For `Cc1nn(C(C)(C)C)c(OC(=O)C2CCCC2)c1S(=O)(=O)c1ccccc1`, the z-score was -0.148.

In turn, `CC(C)C(=O)N1c2ccccc2NC2=C(C(=O)CCC2)C1c1ccc(N(C)C)cc1` (configuration not stated) returned a z-score of -0.528.

On to `N#C/C(=C(/O)CSc1ccccc1C(=O)O)c1nc2ccccc2s1`, for which the z-score was -0.325.

`CN1C(=O)/C(=C2\SC(N)=NC2=O)c2ccccc21` returned a z-score of 0.239.

With `Cc1ccc(S(=O)(=O)NNC(=O)C2COc3ccccc3O2)cc1` (configuration not stated), the z-score was 0.14.

For `CC(C)=CC(=O)Nc1ccccc1Br`, the z-score was -0.129.

In turn, `Cc1cccc2c1OCC/C2=N\NC(=O)COc1ccccc1Cl` showed a z-score of 0.077.

Regarding `CN(C)Cc1ccccc1Sc1ccc(O)cc1O`, the z-score stood at 0.374.

In the case of `O=C(CSc1ncnc2nc[nH]c12)c1ccc2ccccc2c1`, the z-score was -0.00847.

Regarding `O=C(NCCc1ccccc1)C1CCCN(S(=O)(=O)c2cccnc2)C1` (configuration not stated), the z-score turned out to be 0.0248.

Compound `O=C(CSc1ccc2ccccc2n1)Nc1nsc(-c2ccc(Cl)cc2)n1` gave a z-score of 0.032.

Compound `O=C(CCN1CCc2ccccc2C(c2ccccc2)C1)c1ccc2c(c1)OCCO2` (configuration not stated) gave a z-score of -0.639.

Consider `C=C1CSc2nc(=O)c3c(C)c(C)sc3n21`, for which the z-score was -1.54.

As to `CCn1nc(C)c(/C=N/NC(=O)c2c[nH]c3ccccc23)c1C`, the z-score is -0.197.

As to `COc1ccc2ccccc2c1C1CC(=O)N2CN(C)CSC2=C1C#N` (configuration not stated), the z-score came out at 0.256.

The compound `O=C(NCc1ccc2c(c1)OCO2)C(c1ccco1)N(C(=O)c1csnn1)c1ccccc1` (configuration not stated) displayed a z-score of -0.0929.

For `CCOC(=O)CN(C(=O)CSc1nnc(CNc2ccc(F)cc2)n1C)c1ccccc1`, the z-score is -0.346.

For `O=C(/C=C/c1ccco1)NC(=S)Nc1cc(C(F)(F)F)ccc1N1CCOCC1`, the z-score turned out to be 0.575.

As to `C=CCN(CC=C)C(=O)C1CCC(C(=O)N(CC=C)CC=C)CC1` (configuration not stated), the z-score worked out at 0.388.

For the compound `COC(=O)c1sccc1NC(=S)N1CCCCC1C` (configuration not stated), the z-score amounted to 0.028.

`CCC(C)(C)NC(=O)CN(C(=O)c1snc(C(N)=O)c1N)c1ccc2c(c1)OCO2` had a z-score of -0.0132.

The compound `CSc1nc(-c2ccc(Cl)cc2)nn1S(=O)(=O)c1ccc(Cl)cc1` registered a z-score of -0.033.

The compound `COc1ccc(NC(=S)NNC(=O)Cn2nc(C(F)F)cc2C(F)F)cc1` returned a z-score of -0.154.

As for `CCOc1ccc(NC(C)c2cc(Cl)ccc2O)cc1` (configuration not stated), the z-score is -0.419.

Turning to `Cc1ccc(SCC(=O)N2CC(C)OC(C)C2)cc1` (configuration not stated), the z-score worked out at 0.158.

The compound `Clc1ccc(CSc2nnc([C@@H]3CCCN3)o2)cc1Cl` returned a z-score of 0.393.

`CCOC(=O)c1ccc2c(c1)sc(=NC(=O)c1ccco1)n2CCOC` registered a z-score of -0.0675.

The compound `N#CC1=C(N)Nc2ncnn2C1c1ccccc1` (configuration not stated) registered a z-score of -0.33.

In turn, `O=c1cc(O)c2sc(Nc3ccc(F)cc3)nc2[nH]1` returned a z-score of -0.112.

`CCN(CC)c1ccc(C=Nc2ccccc2C)c(O)c1`: the z-score amounted to 0.0072.

Take `Oc1c(Br)cc(Br)cc1/C=N/N1CCN(Cc2ccccc2)CC1`: the z-score amounted to 0.684.

Compound `COc1ccc(C(=O)/C=C/Nc2ccc([N+](=O)[O-])cc2C)cc1OC` gave a z-score of -0.239.

These data come from PubChem BioAssay AID488969 (Vanderbilt High Throughput Screening Facility, 2010).
